Experimental findings from patent US20030022847A1, “Method for inhibiting apoptosis under ischemic condition” (priority 2000, published 2003) are described below.

The experiment relates to HepG2 cells. Put plainly: HepG2 cell viability under low oxygen (hypoxic) condition, trypan blue exclusion assay. The experiment is classed as cell-based, human. As to conditions: for Effective concentration exerting enhancement effects on HepG2 cell viability / Enhancement effect on cell viability under hypoxic condition (in words): 1% (v/v) oxygen, procedure of Examples 4-1 and 4-2.

For the molecule neomycin, the “Effective concentration exerting enhancement effects on HepG2 cell viability” value came out at 1000 µg/mL and the “Enhancement effect on cell viability under hypoxic condition (in words)” value (shortened to “Enhancement effect on cell viability”) is listed as “effective”.
Turning to `Nc1ccc(S(=O)(=O)Nc2ncccn2)cc1` [sulfadiazine], the “Enhancement effect on cell viability” value is reported as “did not show any effect on cell viability”.
For the molecule `O=c1[nH]cc(F)c(=O)[nH]1` [5-fluorouracil], the “Enhancement effect on cell viability” value is “did not show any effect on cell viability”.
Turning to gentamicin, the “Effective concentration exerting enhancement effects on HepG2 cell viability” value fell in the range of 100 to 1000 µg/mL and the “Enhancement effect on cell viability” value was “effective”.
Take `CN[C@@H]1[C@@H](O)[C@@H](O[C@@H]2[C@@H](O)[C@H](O[C@H]3O[C@H]([C@@H](C)O)[C@@H](O)[C@H](O)[C@H]3N)[C@@H](N)C[C@H]2N)OC[C@]1(C)O` [geneticin]: the “Geneticin concentration at which cells were viable for a certain period of time” value fell in the range of 10 to 100 µg/mL.
Consider `CC1(C)S[C@@H]2[C@H](NC(=O)[C@H](N)c3ccccc3)C(=O)N2[C@H]1C(=O)O` [ampicillin], for which the “Enhancement effect on cell viability” value was “did not show enhancement effect on cell viability”.
With `C[C@@H]1C[C@@H]([C@H](O)CC2CC(=O)NC(=O)C2)C(=O)[C@@H](C)C1` [cyclohexamide], the “Enhancement effect on cell viability” value is “did not show any effect on cell viability”.
The same measure, in the same setting: to `COc1ccc(C[C@H](N)C(=O)N[C@H]2[C@@H](O)[C@H](n3cnc4c(N(C)C)ncnc43)O[C@@H]2CO)cc1` [puromycin] belongs “did not show any effect on cell viability”; to `O=C(N[C@H](CO)[C@H](O)c1ccc([N+](=O)[O-])cc1)C(Cl)Cl` [chloramphenicol], “effective”; to `CC[C@H]1OC(=O)[C@H](C)[C@@H](O[C@H]2C[C@@](C)(OC)[C@@H](O)[C@H](C)O2)[C@H](C)[C@@H](O[C@@H]2O[C@H](C)C[C@H](N(C)C)[C@H]2O)[C@](C)(O)C[C@@H](C)C(=O)[C@H](C)[C@@H](O)[C@]1(C)O` [erythromycin], “not effective”.
On the same count and under the same terms, to `CC1(C)S[C@@H]2[C@H](NC(=O)[C@H](N)c3ccc(O)cc3)C(=O)N2[C@H]1C(=O)O` [amoxillin, amoxicillin] belongs “did not show enhancement effect on cell viability”; to `COc1ccc(CN2CCNCC2)c(OC)c1OC` [trimetazidine], “did not show any positive result”; to `O=C(O)c1cn(C2CC2)c2cc(N3CCNCC3)c(F)cc2c1=O` [ciprofloxacin], “effective”.
